Experimental data published in PubChem BioAssay AID485364 (National Center for Advancing Translational Sciences (NCATS), 2010).
Hit rate of the full screen: of about 360,000 compounds, about 11,000 (3.1%) were called active. Inconclusive means that the source gave no clear call. Such entries were picked first, then a sample of the others. Calls follow the shape of the dose curve; as a rule, active = well fitted inhibition curve with a large enough effect; inconclusive = small, poorly fitted or top-dose-only effect; inactive = no such curve, though single readings can be large or run the other way. No potency is given beside an inconclusive call; the fits are too rough.

Molecular target: Schistosoma mansoni thioredoxin glutathione reductase (TGR) (UniProt Q962Y6)
Test: qHTS Assay for the Inhibitors of Schistosoma Mansoni Peroxiredoxins; also: nearly all actives have a fitted effect of over 60% in size
Conditions: purified TGR, DTNB reduction, TNB absorbance 405 nm; activity change, negative = inhibition: at 114 µM (top of the series) unless noted
In short: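 Kinetic colorimetric format: TGR-catalysed, NADPH-driven DTNB reduction monitored via TNB absorbance. Enzyme dispensed at 20 nM; compound exposure 15 min at room temperature before reaction start.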
% is scaled to controls: 0 for no effect and ±100 for the full control effect; potency is read from the fitted curve at half-maximal effect; tags tell the direction and shape of the fitted curve.

Compound	Potency	activity change, negative = inhibition
Cc1ccc(S(=O)(=O)CC(=O)Nc2sc(C)c(C)c2C(N)=O)cc1	inconclusive [inhibitor, full curve, poor fit]	–
O=c1cc(-c2ccccc2)c2c([nH]1)CCCC2	inconclusive [inhibitor, partial curve, poor fit]	–
N#CC1=C(N)C(C#N)(C#N)C2(C(=O)Nc3ccccc32)C2CCCC=C12 (stereo not drawn)	inconclusive [inhibitor, single point]	–
O=C(NCc1ccccc1)c1nnc(CS(=O)(=O)c2ccccc2)o1	inconclusive [inhibitor, partial curve, poor fit]	–
COC(=O)c1cccc(C23CC4(C2)[C@H](CN(Cc2cccnc2)[C@@H]4c2ccccc2)C3c2ccccc2)c1 (stereo partly drawn)	inconclusive [inhibitor, partial curve]	–
O=C(CSc1nnc(-c2cccs2)n1CC1CCCO1)c1cc2ccccc2o1 (stereo not drawn)	inconclusive [inhibitor, single point]	–
Cc1ccc2oc(=O)c3cc(C(=O)Nc4ccc(C)c(F)c4)sc3c2c1	inconclusive [inhibitor, single point]	–
O=C1NC[C@H](Cc2ccc(O)cc2)N(CCc2cccc3ccccc23)C1=O	inconclusive [inhibitor, partial curve, poor fit]	–
COc1ccc(S(=O)(=O)N2CC(=O)Nc3ccccc32)cc1F	active: 11.2 µM	–
COc1ccc(-n2nc(C(=O)NCC(=O)N3CCN(c4ccccn4)CC3)c3ccccc3c2=O)cc1OC	–	inactive: 4.01%
CCOC(=O)c1ccc(OC(=O)c2cn(-c3ccc(C)cc3)c(=O)c3ccccc23)cc1	–	inactive: -10.1%
Cc1ccc2cc(C)c3nnc(SCC(=O)Nc4nc5c(s4)CCCC5)n3c2c1C	–	inactive: 1.43%
Cc1cccc(NC(=O)c2cc3c(n(-c4ccccc4)c2=O)CCCC3=O)n1	active: 31.6 µM	–
Cc1ccc(C)c(C(=O)COC(=O)CN2C(=O)C3C4C=CC(C4)C3C2=O)c1 (stereo not drawn)	inconclusive [inhibitor, partial curve]	–
COc1ccc(/C(C)=N/OCC(=O)N2CC3(C)CC2CC(C)(C)C3)cc1 (stereo not drawn)	inconclusive [inhibitor, partial curve]	–
CCOc1ccc(C(=O)NC2C(=O)N3C(C(=O)O)=C(COC(C)=O)CSC23)cc1OCC (stereo not drawn)	active: 22.4 µM	–
O=C(NCc1cccnc1)C1CC(c2cccc(Br)c2)=NO1 (stereo not drawn)	inconclusive [inhibitor, full curve, poor fit]	–
COc1cc(/C=C2/C(=O)N(c3cccc(Br)c3)N=C2C)cc(OC)c1O	inconclusive [inhibitor, full curve]	–
CCc1ccccc1NC(=O)C1CCN(c2nc3ccccc3[nH]2)CC1	–	inactive: 1.7%
COc1cc(C(C(=O)NC2CCCCC2)N(CCN2CCOCC2)C(=O)C2COc3ccccc3O2)cc(OC)c1OC (stereo not drawn)	–	inactive: -2.03%
O=C(/C=C/c1ccco1)N1CCN(c2ncccn2)CC1	active: 20 µM	–
O=C(N/N=C/c1ccc([N+](=O)[O-])o1)c1cc2ccccc2o1	inconclusive [inhibitor, partial curve]	–
COc1ccc(S(=O)(=O)NNC(=O)Nc2ccc(C)cc2)c(OC)c1	inconclusive [inhibitor, single point]	–
O=C(Cn1nc(Cl)nc1Cl)c1ccc([N+](=O)[O-])cc1	inconclusive [inhibitor, partial curve]	–
COc1cccc(CSc2nc3nc(C)cc(C)n3n2)c1	–	inactive: 5.94%

Compound	Potency	activity change, negative = inhibition
COc1cc2c(C#CCCO)c(-c3ccc(C#N)cc3)oc(=O)c2cc1OC	inconclusive [inhibitor, partial curve]	–
O=C(CNS(=O)(=O)c1ccc(F)cc1)Nc1ccc(C(F)(F)F)cc1	–	inactive: -3.01%
CCC(=O)N1CCN(c2ccc(NC(=O)c3ccc([N+](=O)[O-])o3)cc2)CC1	active: 28.2 µM	–
CCOC(=O)/C=C1\CN(C(C)c2ccccc2)S(=O)(=O)c2ccccc21 (stereo not drawn)	active: 28.2 µM	–
CCOc1ccccc1CNC(=O)c1cc2occc2n1C	inconclusive [inhibitor, partial curve]	–
O=C(Nc1cccc(-c2cn3cccnc3n2)c1)c1ccco1	–	inactive: -31.9%
Cc1nc2ccccn2c1/C(O)=C1\C(=O)C(=O)N(CCN2CCOCC2)C1c1cccnc1 (stereo not drawn)	–	inactive: -20.8%
C/C(CC(=O)Nc1ccc(Br)cc1)=N\NC(=O)c1cccc(O)c1	–	inactive: -15.3%
Cn1c(CS(=O)Cc2c(Cl)cccc2Cl)nnc1SCc1c(Cl)cccc1Cl (stereo not drawn)	–	inactive: -0.688%
O=C(c1cccc(Cl)c1)N1CCC(=O)N(C(COCc2cccc(Cl)c2)Cc2ccccc2)CC1 (stereo not drawn)	–	inactive: -17%
S=C(Nc1ccc2cn[nH]c2c1)Nc1ccccc1Cl	inconclusive [inhibitor, partial curve]	–
O=C1NC(=S)S/C1=C\c1ccc(SCc2ccccc2)o1	inconclusive [inhibitor, partial curve]	–
COCCn1c(C)cc(O)c(C(c2ccccc2Cl)N2CCCCC2)c1=O (stereo not drawn)	active: 28.2 µM	–
O=C(Nc1ccc(-c2nc3ncccc3o2)cc1)c1ccc(Br)o1	inconclusive [inhibitor, single point]	–
COc1cccc(C(=O)CSc2nnc(-c3cc(OC)c(OC)c(OC)c3)o2)c1	–	inactive: -2.31%
Cc1ccc(-n2nnnc2CCl)cc1	active: 5.62 µM	–
c1ccc(Nc2cccc(Nc3ccccc3)c2)cc1	active: 35.5 µM	–
Cn1nnnc1SCCCNCc1ccc(-c2cccc(Cl)c2)o1	inconclusive [inhibitor, single point]	–
CC(=O)c1cccc(NC(=O)CCc2nnc3ccc(N4CCOCC4)nn23)c1	–	inactive: 0.823%
CCOc1cc(CN2CCN(c3cccc(C(F)(F)F)c3)CC2)ccc1O	active: 44.7 µM	–
CSc1nnc(N2C(=O)C(O)=C(C(=O)c3ccco3)C2c2ccc(F)cc2)s1 (stereo not drawn)	active: 50.1 µM	–
Cc1cc(C)n2nc(SCC(=O)N(C(C)C)C(C)C)nc2n1	inconclusive [inhibitor, single point]	–
Cc1cccc(N(C)C(=O)CS(=O)(=O)c2cccc3nsnc23)c1	–	inactive: 5.42%
Cc1cccc(NCc2ccc(O)c3ncccc23)c1C	active: 0.112 µM	–
CCOc1ccc(CCNC(=O)c2ccc(C)c(-n3cnc4cccnc43)c2)cc1	–	inactive: -2.05%

Compound	Potency	activity change, negative = inhibition
Nc1nnc(SC2CC(=O)N(c3ccccc3)C2=O)s1 (stereo not drawn)	active: 2.51 µM	–
CCOc1ccc(CNC(=O)CCc2c(C)nn(-c3ccc(N4CCOCC4)nn3)c2C)cc1	inconclusive [inhibitor, single point]	–
CCn1cc(C(=O)NCc2ccco2)c(=O)c2cc(S(=O)(=O)N3CCC(C)CC3)ccc21	inconclusive [inhibitor, partial curve]	–
CC(=O)Nc1ccc(C(=O)Nc2ccc3c(c2)OCCO3)cc1	–	inactive: -0.694%
COc1ccc(C(CNC(=O)c2ccc(S(=O)(=O)N3CCCC3)cc2)N(C)C)cc1OC (stereo not drawn)	inconclusive [inhibitor, full curve, poor fit]	–
COc1cccc(-n2c(=S)[nH]c3c(oc4ccccc43)c2=O)c1	inconclusive [inhibitor, partial curve]	–
COc1ccccc1-c1oc2ccccc2c1-c1ccc2cc[nH]c2c1	inconclusive [inhibitor, partial curve]	–
O=C(CCc1ccc(O)c(O)c1)N/N=C/c1ccc2c(c1)OCO2	active: 11.2 µM	–
Cc1nc2sc(C(c3ccco3)N3CCN(c4ccc(F)cc4)CC3)c(O)n2n1 (stereo not drawn)	inconclusive [inhibitor, partial curve]	–
O=C1C=CC(=O)C(C2=C3C(=O)N(CCc4ccccc4)CC(=O)N3CCC2)=C1	active: 0.282 µM	–
O=C1CC(N2CCN(S(=O)(=O)c3ccccc3F)CC2)C(=O)N1c1ccccc1Cl (stereo not drawn)	inconclusive [inhibitor, partial curve]	–
CCN(CC)CCCNC(=O)C(C)n1nc(C)n2c(cc3occc32)c1=O (stereo not drawn)	–	inactive: 11.1%
O=C(COC(=O)CCS(=O)(=O)c1ccccc1)Nc1ccccc1	active: 8.91 µM	–
O=C(CN1CCCCCC1)Nc1ccc(Br)cn1	inconclusive [inhibitor, partial curve]	–
COc1cccc(CNC(=O)CCC2CCCN(C(=O)c3cccc4c(C)c(C)[nH]c34)C2)c1 (stereo not drawn)	inconclusive [inhibitor, partial curve]	–
Cc1ccc(C)c2[nH]c(=O)c(CN(CCN3CCOCC3)Cc3nnnn3CC3CCCO3)cc12 (stereo not drawn)	active: 20 µM	–
O=C(COC(=O)C1=COCCO1)Nc1cccc(S(=O)(=O)N2CCOCC2)c1	inconclusive [inhibitor, full curve, poor fit]	–
COc1cccc(/C=C2\SC(=S)N(NS(=O)(=O)c3ccc(C)cc3)C2=O)c1OC	inconclusive [inhibitor, partial curve]	–
O=C(Nc1nc(-c2ccco2)c(-c2ccco2)s1)c1cnccn1	active: 14.1 µM	–
CCCCn1c(C(C)NC(=O)CC)nc2ccccc21 (stereo not drawn)	–	inactive: 4.81%
O=C(Nc1ccccc1N1CCCC1)c1ccco1	inconclusive [inhibitor, full curve, poor fit]	–
CCCCC1OC23CCCCC2C(C#N)(C#N)C1(C#N)C(=N)O3 (stereo not drawn)	inconclusive [inhibitor, partial curve]	–
COc1ccc(-c2nnc(SCC(=O)O)n2Cc2ccccc2)cc1	inconclusive [inhibitor, partial curve]	–
